Measured values as given in the supplement of paper PMC10126150.
Values marked as one replicate rest on one cluster of the flow cell; about a third of the high ones do not repeat.

system: ATP; assay: switch fluorescence ratio, 500 uM ATP over buffer (Cy3 cluster intensity, sum of 5 cycles each) (fold (ratio)); higher = stronger signal-on switching upon ATP binding; sequences stand for … in TCGTCGGCAGCGTCAGATGTGTATAAGAGACAGTTTTTTTTTTTTTTTTTTTTTTTTT…TC; details: aptamer strand: ATP DNA aptamer (quencher-CACCTGGGGGAGTATTGCGGAGGAAGG + anchor), 100 nM annealed; ATP concentration: 500 uM; one replicate
In short: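 Switching-strand clusters labelled with Cy3 on a modified Illumina MiSeq flow-cell were annealed to 100 nM quencher-labelled ATP aptamer, imaged in selection buffer, and re-imaged after 15 min with 500 uM ATP at 22 °C. This was done over five cycles with NaOH stripping and re-annealing in between. The fluorescence ratio is summed target-cycle over summed buffer-cycle Cy3 intensity per cluster, averaged per switch-domain sequence, excluding clusters outside 100-1000 RFU.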
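Also: ATP exposure 15 min at 22 °C before imaging.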

Sequence | switch fluorescence ratio
GTATTTAAAC | 0.99
GTATTTGCCC | 1.01
GTCAAACGAT | 1.02
GTCAACCCCG | 1.06
GTCAACGGTA | 1.02
GTCAACTGCT | 1
GTCACACATT | 1.03
GTCACCGTTC | 1
GTCACGTCGT | 1.01
GTCACTCGCT | 0.96
GTCAGAAACC | 1.11
GTCAGAAGTA | 1.02
GTCAGGCCCT | 0.989
GTCAGTAAGA | 1.17
GTCAGTACTG | 1.02
GTCATAAAGG | 1
GTCATACGTT | 1.03
GTCATCCCG | 0.987
GTCATCCTCG | 0.994
GTCATCCTGT | 0.983
GTCATCGCCT | 0.991
GTCATGACGG | 1
GTCATGTACT | 1.05
GTCATGTGCA | 1
GTCATTAAGC | 1.03
GTCATTAGTA | 1

Sequence | switch fluorescence ratio
GTCATTCATG | 0.945
GTCATTTG | 1.05
GTCCACCTGG | 1.33
GTCCAGTAAA | 1.01
GTCCAGTCGC | 1.04
GTCCATTCGA | 1.03
GTCCCAGAAT | 0.979
GTCCCATGTT | 1.02
GTCCCTACTG | 1.01
GTCCCTGAAA | 0.981
GTCCGACACG | 1.1
GTCCGATCCT | 1.06
GTCCGCATTT | 5.07
GTCCGTGGTC | 1.1
GTCCTCTAAG | 0.991
GTCCTGACCA | 0.999
GTCCTGATTG | 1.01
GTCCTTAGGG | 0.971
GTCCTTCGGA | 0.985
GTCGAACGAA | 1.18
GTCGACAGTG | 1
GTCGACGAGC | 1.07
GTCGACTATT | 1
GTCGACTGGG | 1
GTCGAGCCGC | 1.02
GTCGAGCCTT | 1

Sequence | switch fluorescence ratio
GTCGAGGGTG | 1.01
GTCGATTATG | 0.98
GTCGCGCCGA | 0.976
GTCGCTCCGA | 1.02
GTCGCTGGGA | 0.984
GTCGCTTGAT | 0.997
GTCGGACACG | 0.965
GTCGGAGAAG | 0.983
GTCGGAGC | 1.05
GTCGGAGGAG | 0.937
GTCGGATCTA | 0.998
GTCGGCCAAG | 0.974
GTCGGGATTT | 0.984
GTCGGGCTGA | 1
GTCGGGGACA | 0.961
GTCGGGGTG | 1.01
GTCGGTGTAG | 1.02
GTCGGTTCGT | 1.01
GTCGTCAAGG | 0.949
GTCGTGGTCG | 1.01
GTCGTGTCGC | 1.1
GTCGTTCAGC | 0.973
GTCGTTCTCA | 0.999
GTCGTTTAGT | 0.98
GTCGTTTTTT | 1.01
